The supplement of paper PMC4604168 (melanoma cell lines)
The list shows a part of the results. Most values come without repeats; read them as rough.

Assays:
Experiment in all cases: cell count relative to DMSO control; melanoma cells; higher = more viable cells
Details in all cases: library dose: low library concentration; 72 h
MZ2-MEL = test system: MZ2-MEL
MeWo = test system: MeWo
RPMI7951 = test system: RPMI7951
RVH-421 = test system: RVH-421
SkMel28 = test system: SkMel28
SkMel2 = test system: SkMel2
SkMel30 = test system: SkMel30
SkMel5 = test system: SkMel5
UACC257 = test system: UACC257
UACC62 = test system: UACC62
WM115 = test system: WM115
WM1716 = test system: WM1716
WM1745 = test system: WM1745
WM3526 = test system: WM3526
WM3619 = test system: WM3619
WM451Lu = test system: WM451Lu
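Further: cell number obtained by counting DAPI-stained nuclei in high-throughput microscope images with image analysis software, screen run in 1,536-well plates.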

| SMILES | cell count (MZ2-MEL) [%] | cell count (MeWo) [%] | cell count (RPMI7951) [%] | cell count (RVH-421) [%] | cell count (SkMel28) [%] | cell count (SkMel2) [%] | cell count (SkMel30) [%] | cell count (SkMel5) [%] | cell count (UACC257) [%] | cell count (UACC62) [%] | cell count (WM115) [%] | cell count (WM1716) [%] | cell count (WM1745) [%] | cell count (WM3526) [%] | cell count (WM3619) [%] | cell count (WM451Lu) [%] |
| --- | --- | --- | --- | --- | --- | --- | --- | --- | --- | --- | --- | --- | --- | --- | --- | --- |
| CCN(CC)CCNC(=O)c1c(C)[nH]c(/C=C2\C(=O)Nc3ccc(F)cc32)c1C [sunitinib] + Cc1cc(N2CCOCC2)cc2[nH]c(-c3c(NC[C@@H](O)c4cccc(Cl)c4)cc[nH]c3=O)nc12 [BMS536924] (first compound 0.4 µM, partner dose 0.2 µM) | 113 | 89.5 | 98.5 | 109 | 75.1 | 91.1 | 79 | 89.5 | 72.8 | 87.8 | 108 | 124 | 62.5 | 74 | 91.3 | 84.3 |
| C[C@]1(O)C[C@@H](c2nc(-c3ccc4ccc(-c5ccccc5)nc4c3)c3c(N)nccn32)C1 + COc1cc(N2CCC(N3CCN(C)CC3)CC2)ccc1Nc1ncc(Cl)c(Nc2ccccc2S(=O)(=O)C(C)C)n1 [NVP-TAE684] (first compound 0.4 µM, partner dose 0.08 µM) | 104 | 94.1 | 101 | 97.9 | 90 | 80.2 | 112 | 96.6 | 75.8 | 86.3 | 98.3 | 116 | 80.2 | 71.4 | 109 | 104 |
| Cn1cnc2c(F)c(Nc3ccc(Br)cc3Cl)c(C(=O)NOCCO)cc21 [selumetinib] + Cn1cncc1[C@@](N)(c1ccc(Cl)cc1)c1ccc2c(c1)c(-c1cccc(Cl)c1)cc(=O)n2C [tipifarnib] (first compound 0.015 µM, partner dose 0.01 µM) | 79.9 | 89.1 | 125 | 85 | 71.5 | 68 | 60.8 | 120 | 59.8 | 65.9 | 75.7 | 100 | 103 | 71.4 | 66 | 102 |
| Cn1cnc2c(F)c(Nc3ccc(Br)cc3Cl)c(C(=O)NOCCO)cc21 [selumetinib] + COc1cc2ncnc(Nc3ccc(Oc4ccccc4)cc3)c2cc1OC [SrcI1] (first compound 0.015 µM, partner dose 2 µM) | 98.6 | 81.6 | 102 | 90.3 | 91.8 | 88 | 81.2 | 106 | 112 | 77.5 | 83.1 | 113 | 87.9 | 71.8 | 92.5 | 112 |
| COc1cc([C@@H]2c3cc4c(cc3[C@@H](O[C@@H]3O[C@@H]5CO[C@@H](C)O[C@H]5[C@H](O)[C@H]3O)[C@H]3COC(=O)[C@H]23)OCO4)cc(OC)c1O [etoposide] + CN(C)S(=O)(=O)c1ccc2c(c1)/C(=C/c1cc3c([nH]1)CCCC3)C(=O)N2 [SU6656] (first compound 0.02 µM, partner dose 0.4 µM) | 90.5 | 94.6 | 104 | 75 | 91.4 | 93.2 | 94.7 | 99.2 | 81.2 | 80.5 | 77.5 | 97.4 | 118 | 105 | 89.3 | 135 |
| CCN(CC)CCNC(=O)c1c(C)[nH]c(/C=C2\C(=O)Nc3ccc(F)cc32)c1C [sunitinib] + NCC(=O)Nc1ccc(-n2nc(C(F)(F)F)cc2-c2ccc3c(ccc4ccccc43)c2)cc1 [OSU03012] (first compound 0.4 µM, partner dose 1 µM) | 102 | 71.9 | 110 | 121 | 81.6 | 73.9 | 43 | 120 | 95.2 | 82.9 | 83.5 | 129 | 73.7 | 43.1 | 93.7 | 67.2 |
| CCN(CC)CCNC(=O)c1c(C)[nH]c(/C=C2\C(=O)Nc3ccc(F)cc32)c1C [sunitinib] + Cn1cncc1[C@@](N)(c1ccc(Cl)cc1)c1ccc2c(c1)c(-c1cccc(Cl)c1)cc(=O)n2C [tipifarnib] (first compound 0.4 µM, partner dose 0.01 µM) | 99.3 | 76.7 | 95.8 | 86.3 | 87.6 | 96 | 93 | 107 | 59.7 | 57.3 | 82.4 | 90.8 | 83.2 | 86.4 | 91.3 | 108 |
| Cn1cnc2c(F)c(Nc3ccc(Br)cc3Cl)c(C(=O)NOCCO)cc21 [selumetinib] + Cc1cc(N2CCOCC2)cc2[nH]c(-c3c(NC[C@@H](O)c4cccc(Cl)c4)cc[nH]c3=O)nc12 [BMS536924] (first compound 0.015 µM, partner dose 0.2 µM) | 75.2 | 80.9 | 123 | 89.6 | 90.4 | 61 | 49.2 | 104 | 77 | 64.9 | 83.3 | 113 | 76.3 | 70.7 | 64.7 | 108 |
| C[C@]1(O)C[C@@H](c2nc(-c3ccc4ccc(-c5ccccc5)nc4c3)c3c(N)nccn32)C1 + CCCCCCCCCCCC1=C(O)C(=O)C=C(O)C1=O [Embelin] (first compound 0.4 µM, partner dose 1.2 µM) | 96.9 | 88.6 | 102 | 106 | 81.9 | 85.9 | 93.7 | 84.4 | 93 | 96.9 | 101 | 104 | 74.8 | 80.1 | 119 | 91.8 |
| COc1cc([C@@H]2c3cc4c(cc3[C@@H](O[C@@H]3O[C@@H]5CO[C@@H](C)O[C@H]5[C@H](O)[C@H]3O)[C@H]3COC(=O)[C@H]23)OCO4)cc(OC)c1O [etoposide] + NCC(=O)Nc1ccc(-n2nc(C(F)(F)F)cc2-c2ccc3c(ccc4ccccc43)c2)cc1 [OSU03012] (first compound 0.02 µM, partner dose 1 µM) | 87.1 | 62.9 | 110 | 92.8 | 77.7 | 62.6 | 50.5 | 93.4 | 87.4 | 83.3 | 84.4 | 88.9 | 91.2 | 51 | 98.6 | 59.6 |
| Cn1cnc2c(F)c(Nc3ccc(Br)cc3Cl)c(C(=O)NOCCO)cc21 [selumetinib] + O=c1cc(-c2cccc3c2Sc2ccccc2S3)oc(N2CCOCC2)c1 [KU55933] (first compound 0.015 µM, partner dose 1 µM) | 84.3 | 96.4 | 96.6 | 64.8 | 91.3 | 75.9 | 52.8 | 136 | 113 | 78.9 | 85.4 | 114 | 102 | 68 | 75.7 | 117 |
| C[C@]1(O)C[C@@H](c2nc(-c3ccc4ccc(-c5ccccc5)nc4c3)c3c(N)nccn32)C1 + Cc1cc([N+](=O)[O-])ccc1NS(=O)(=O)c1cc(Cl)ccc1Cl [FH535] (first compound 0.4 µM, partner dose 1 µM) | 95.2 | 92.7 | 93.6 | 115 | 84.9 | 83.7 | 78.6 | 70.3 | 77.6 | 83.7 | 92.5 | 93.3 | 76 | 77 | 89.2 | 88.4 |
| C[C@]1(O)C[C@@H](c2nc(-c3ccc4ccc(-c5ccccc5)nc4c3)c3c(N)nccn32)C1 + CN(NC(=O)CC(=O)NN(C)C(=S)c1ccccc1)C(=S)c1ccccc1 [STA4783] (first compound 0.4 µM, partner dose 0.006 µM) | 88.8 | 87.4 | 123 | 98.1 | 103 | 60.2 | 96.4 | 77.4 | 65.6 | 80.2 | 75.8 | 53.4 | 5.07 | 86.1 | 30.3 | 116 |
| CCN(CC)CCNC(=O)c1c(C)[nH]c(/C=C2\C(=O)Nc3ccc(F)cc32)c1C [sunitinib] + O=C(CCCCCCC(=O)Nc1ccccc1)NO [vorinostat] (first compound 0.4 µM, partner dose 0.08 µM) | 113 | 90.4 | 121 | 129 | 88.1 | 111 | 78.4 | 97.3 | 114 | 83.7 | 98.5 | 140 | 84.1 | 76.4 | 126 | 116 |
| C[C@]1(O)C[C@@H](c2nc(-c3ccc4ccc(-c5ccccc5)nc4c3)c3c(N)nccn32)C1 + NCC(=O)Nc1ccc(-n2nc(C(F)(F)F)cc2-c2ccc3c(ccc4ccccc43)c2)cc1 [OSU03012] (first compound 0.4 µM, partner dose 1 µM) | 88.1 | 64.7 | 111 | 88.4 | 96.8 | 81 | 52.9 | 83.2 | 96.9 | 80.8 | 91.1 | 98.3 | 74.1 | 45.9 | 67.5 | 49.5 |
| CCN(CC)CCNC(=O)c1c(C)[nH]c(/C=C2\C(=O)Nc3ccc(F)cc32)c1C [sunitinib] + NC(=O)Nc1cc(-c2cccc(F)c2)sc1C(=O)N[C@H]1CCCNC1 [AZD7762] (first compound 0.4 µM, partner dose 0.02 µM) | 118 | 80.7 | 91.3 | 123 | 89.1 | 124 | 43.9 | 97.5 | 93.8 | 97 | 85.7 | 111 | 82.8 | 36.3 | 94 | 87.7 |
| C[C@]1(O)C[C@@H](c2nc(-c3ccc4ccc(-c5ccccc5)nc4c3)c3c(N)nccn32)C1 + O=C(O)c1ccc(-c2c[nH]c3ncc(-c4ccccc4)cc23)cc1C1CCCC1 [GSK650394] (first compound 0.4 µM, partner dose 0.16 µM) | 89.2 | 92.6 | 113 | 114 | 108 | 86.3 | 97.5 | 79.5 | 88.7 | 83.7 | 92.8 | 104 | 90.8 | 86.1 | 113 | 68.2 |
| C[C@]1(O)C[C@@H](c2nc(-c3ccc4ccc(-c5ccccc5)nc4c3)c3c(N)nccn32)C1 + COC(=O)c1sccc1S(=O)(=O)Nc1ccc(Nc2ccccc2)cc1OC [GSK0660] (first compound 0.4 µM, partner dose 1 µM) | 99.7 | 107 | 99.8 | 93.1 | 90.5 | 75.5 | 81.5 | 84.7 | 97.8 | 94.3 | 106 | 106 | 84.3 | 85.3 | 88.8 | 97.4 |
